Test results as given in paper PMC6919601, “Identification of Plasmodium dipeptidyl aminopeptidase allosteric inhibitors by high throughput screening” (PLoS ONE, 2019).
Among all 110,000 compounds or so, about 230 (0.21%) showed an effect of 50% or more. The list shows a part of the results.

What follows are compounds tested against DPAP1 (Plasmodium falciparum, UniProt Q8IIJ9) (assay: primary screen, percent inhibition; read by cleavage of a fluorogenic dipeptide substrate; higher = more effect of the substance).
Parameters: species or system P. falciparum D10 trophozoite lysates; single well
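Also: 30 min substrate incubation versus DMSO and 10 µM JCP410 controls.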

DPAP1, sequence (Q8IIJ9 whole entry, looked up): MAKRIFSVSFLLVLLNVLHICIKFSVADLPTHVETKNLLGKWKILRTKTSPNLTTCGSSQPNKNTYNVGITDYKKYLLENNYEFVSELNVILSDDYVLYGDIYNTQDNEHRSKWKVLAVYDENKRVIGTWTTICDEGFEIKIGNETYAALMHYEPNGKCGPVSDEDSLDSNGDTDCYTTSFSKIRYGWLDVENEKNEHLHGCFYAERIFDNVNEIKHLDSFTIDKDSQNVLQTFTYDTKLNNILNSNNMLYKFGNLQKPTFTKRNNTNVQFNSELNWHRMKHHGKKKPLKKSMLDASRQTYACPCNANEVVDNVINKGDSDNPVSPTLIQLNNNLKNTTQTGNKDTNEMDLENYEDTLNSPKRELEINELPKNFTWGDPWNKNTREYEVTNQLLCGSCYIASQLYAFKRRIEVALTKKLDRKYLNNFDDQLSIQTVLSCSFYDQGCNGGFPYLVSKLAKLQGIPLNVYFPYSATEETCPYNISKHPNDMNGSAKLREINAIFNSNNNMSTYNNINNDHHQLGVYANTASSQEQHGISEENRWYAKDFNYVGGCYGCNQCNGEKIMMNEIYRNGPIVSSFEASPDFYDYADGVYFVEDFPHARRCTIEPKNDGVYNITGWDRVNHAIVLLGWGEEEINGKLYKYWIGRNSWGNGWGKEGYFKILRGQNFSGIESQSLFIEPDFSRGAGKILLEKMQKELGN

SMILES	% Inhibition @ 10 uM [%]
O=C(Cn1ncc2c3ccccc3nc-2c1O)N(Cc1ccco1)C1CCCCC1	-4.81
CCc1ccc(-n2nnc(-c3nc(-c4ccccc4F)no3)c2N)cc1	4.23
COc1cccc(C2CC(C(F)(F)F)n3ncc(C(=O)NCc4ccc(F)cc4)c3N2)c1 (stereo not shown)	3.35
CSc1ncc2c(=O)n(Cc3ccccc3)ccc2n1	4.01
Cc1ccc(NC2=NC(=O)CC(C(=O)Nc3ccc(C)c(C)c3)N2)cc1 (stereo not shown)	-0.884
COc1cccc(C(CC(=O)Nc2sc3c(c2C#N)CCCC3)NC(=O)c2ccccc2)c1 (stereo not shown)	-4.7
CC(=O)c1ccc(Sc2ccc(Cl)cc2C(=O)O)cc1	-8.26
CC1CCC(N[C@H]2CCCCNC2=O)CC1 (stereo partly shown)	-8.99
Cc1ccc(OCCN2CCN(C(=O)CSc3nc4ccccc4nc3N3CCCC3)CC2)cc1	-1.72
COc1cc2c(cc1OC)C(C(=O)N1CCOCC1)C(c1cccs1)N(C)C2=O (stereo not shown)	1.83
O=C(c1cc(-c2ccc(Cl)cc2)n[nH]1)N1CCn2c1nc1ccccc12	3.47
O=C(NC(=O)c1cccc(C(F)(F)F)c1)OC1CCS(=O)(=O)C1 (stereo not shown)	1.57
CCN1CCC2(CC1)OC(=O)C(C)=C2C(=O)NCc1cccs1	-3.25
C=CCNc1cc(-c2ccccc2)nc2nc3ccccc3n12	6.74
CC1=C(c2ccc(C)c(C)c2)S(=O)(=O)N=C1N1CCC(C(=O)NCc2ccccc2Cl)CC1	6.31
Cc1ccc(CCNC(=O)C2CCCN(S(=O)(=O)c3ccc4nc(O)ccc4c3)C2)cc1 (stereo not shown)	-3.43
CCC(C)Cn1c(C(C)O)nc2ccccc21 (stereo not shown)	-4.02
O=C(Nc1ccc(Br)cc1)c1cc(S(=O)(=O)Nc2ccccn2)ccc1Cl	-0.0217
c1ccc(CCN2CCC(NCC3CCCO3)CC2)cc1 (stereo not shown)	-5.11
Cc1ccc(-c2cc(C(F)(F)F)c3c(N)c(C(N)=O)sc3n2)cc1	33.4
COc1ccc(/C=C2\N=c3ccn(Cc4ccccc4)c(=O)c3=C2O)cc1	4.74
Cc1ccsc1C(=O)N1CCCc2ccccc21	5.53
Cc1scc(CN2CCc3ccccc3C2)c1C	-0.999
Brc1ccc(CN2CCN(Cc3ccncc3)CC2)cc1	4
Cc1ccc2c(c1)C(=O)OC(C(=O)Nc1cc(C)on1)C2 (stereo not shown)	-1.52

SMILES	% Inhibition @ 10 uM [%]
O=C(CN1CCCC1)Nc1c2c(nc3c1CCC3)CCCC2	1.54
COc1ccccc1S(=O)(=O)Cc1ccc(C(=O)NCc2ccccc2)o1	-1.28
CC(C)OP(=O)(CN1CCOCC1)OC(C)C	-4.61
O=C1C=C(Nc2cc(Cl)cc(Cl)c2)CC(c2ccco2)C1 (stereo not shown)	-5.72
CCOc1ccccc1NC(=O)c1ccc(COc2ccccc2OC)cc1	2.44
Cc1ccc(CNc2nc3c(c(=O)[nH]c(=O)n3C)n2CC(O)CO)cc1 (stereo not shown)	3.66
COC(=O)c1cc(-c2ccc(C=C3C(=O)OC(C)(C)OC3=O)o2)ccc1Cl	-1.6
Cc1cc(OCC(=O)Nc2cccc3c2CCCC3)ccc1Br	1.04
CCN1CCN(CCNC(=O)C2CCCN(Cc3nc(-c4cccc(Cl)c4)oc3C)C2)CC1 (stereo not shown)	-2.85
COCC(=O)n1nc(-c2ccc(Cl)cc2)nc1NCc1ccco1	-1.11
Cc1cccc(CN2CCN(Cc3cccnc3)CC2)c1	-6.74
CC(C)CC(C(=O)NCC#N)c1cccc(-c2cccc(-c3csc(N=C(N)N)n3)c2)c1 (stereo not shown)	-3.04
COc1ccc(N(CC(=O)N(C)C)S(=O)(=O)c2ccc(C)cc2)cc1Cl	-5.26
CN(C)CCNC(=O)C1CCCN(S(=O)(=O)N2CCOCC2)C1 (stereo not shown)	1.17
N#CCNC(=O)C(CC1CCCCC1)C(=O)Nc1ccc(Oc2ccccc2)cc1 (stereo not shown)	-1.83
COC(=O)c1ccc(C2c3c(oc4ccccc4c3=O)C(=O)N2c2nc(C)c(C)s2)cc1 (stereo not shown)	2.16
O=C(COc1ccc(Cl)cc1)Nc1ccc(NC(=O)COc2ccc(Cl)cc2)cc1	-1.32
CN1CCN(C(=O)c2cccc(Cl)c2)CC1	-3.82
COc1ccc(C2=NOC(C(=O)N3CC4(C)CC3CC(C)(C)C4)C2)cc1OC (stereo not shown)	-0.644
Cc1ccc(-c2cc(C(=O)Nc3cccnc3)c3ccccc3n2)s1	1.08
Fc1ccc([C@@H]2Nc3c(F)cccc3[C@@H]3C=CC[C@@H]32)cc1	-3.19
CCN(CC)C(=O)Oc1cc(=O)n2c3c(cccc13)CCC2	1.67
Cc1cccc(C)c1NC(=O)c1ccco1	-0.294
O=C(NCCCN1CCOCC1)C1(c2ccccc2)CCOCC1	1.15
COc1ccc(CNc2nc(-c3ccco3)nn2C(=O)c2cc(OC)c(OC)c(OC)c2)cc1	0.248

SMILES	% Inhibition @ 10 uM [%]
COc1cc(C(=O)NCCOc2cc(C)cc(C)c2)c(Br)c(OC)c1OC	-1.26
Cc1cccc(NC(=O)c2ccccc2Cl)c1C	-5.11
COc1ccc(-c2ccc(CCC(=O)O)o2)cc1	4.74
Clc1ccc(-n2ncc3c(N4CCCCCC4)ncnc32)cc1	2.07
CC(=O)N1CCN(Cc2cc(=O)oc3cc(C)ccc23)CC1	2.29
O=C(Nc1ccc(NC(=O)C2CC3CCC2C3)cc1)C1CC2CCC1C2 (stereo not shown)	-5.23
O=C1c2ccccc2CN1CCSC(=S)N1CCCC1	0.108
O=C(O)c1ccc(-n2[nH]c(=O)ccc2=O)cc1	-0.902
Cc1ccc(NS(=O)(=O)c2ccc(NC(=O)c3ccccc3C(=O)O)cc2)cc1C	2.3
CC1(C)C[C@@H](O)CC2(C1)C[C@]1(C)CC(O)[C@H]2C(C)(C)C1 (stereo partly shown)	-1.44
COCCNc1nc2c(S(=O)(=O)c3cc(C)ccc3C)nnn2c2ccsc12	0.857
CC1=C(C(=O)NCCN2CCN(C)CC2)C2(CCCCC2)OC1=O	4.2
CC1(C)CC(=O)c2cnc(NC(=O)CSc3ccc(Cl)cc3)nc2C1	-1.18
Cc1ccc(CN2c3ccsc3C(O)=C(/C=N/C(C)C)S2(=O)=O)cc1	0.711
CC(C)(O)C#Cc1ccc(C2C3=C(CC(C)(C)CC3=O)OC3=C2C(=O)CC(C)(C)C3)cc1	1.96
CCOc1ccccc1N1CCN(C(=O)c2cccc(Br)c2)CC1	-1.79
NC(=O)CCCc1c[nH]c2ccccc12	3.34
Cc1ccc2cnn(CC(=O)N3CCCCC3)c2c1	-2.88
COc1ccc(CCNC2CCCCC2)cc1OC	1.71
CC(Cc1ccccc1)NC(=O)c1c[nH]cn1 (stereo not shown)	-3.8
COc1ccc(/C=C2\CN(C(C)C)C/C(=C\c3ccc(OC)c(OC)c3OC)C2=O)c(OC)c1OC	-3.79
O=C(c1cc2ccccc2oc1=O)N1CCSC1c1ccc(Br)cc1 (stereo not shown)	2.22
COc1cccc(-c2ccc(C#N)c(SCC(=O)Nc3cccc(NC(C)=O)c3)n2)c1	4.28
O=S(=O)(NCCCc1ccccc1)c1ccc(-c2ccc(O)nn2)o1	-0.171
O=C(NCc1nc2ccccc2[nH]1)c1ccccc1Cl	4.1

SMILES	% Inhibition @ 10 uM [%]
O=C(NCC1CCCO1)C1C2C=CC3(CN(Cc4cccs4)C(=O)C13)O2 (stereo not shown)	-4.06
CC1=C(C(=O)Nc2ccccc2)C(c2ccc(Br)cc2)NC(=O)N1 (stereo not shown)	-1.8
CC(=O)N1CCc2c(sc3nc(SCc4ccc(F)cc4)n(CC4CCCO4)c(=O)c23)C1 (stereo not shown)	1.02
Nc1c(Cc2ccccc2)ccc2c1C(=O)c1ccccc1C2=O	4.16
COc1cc(C2c3c(oc4ccccc4c3=O)C(=O)N2CCCN2CCOCC2)ccc1O (stereo not shown)	0.628
COc1ccccc1-c1cc(C2CC2)nc(N)c1C#N	-0.446
O=C(NCc1ccccn1)Nc1ccc(Cl)c(Cl)c1	-4.39
O=C(Nc1ccccc1C(F)(F)F)c1cccs1	-1.22
O=C(Cn1ncc2c3ccccc3n(Cc3ccc(F)cc3)c2c1=O)NC1CCCC1	1.8
Cc1ccc(-c2c(C#N)c(N)nc3c2CCCCC3)s1	-3.14
O=C1CC(c2ccccc2)CC(=O)C1=CNCc1ccc2c(c1)OCO2 (stereo not shown)	-3.63
Cc1cc(N2CCOCC2)ccc1/C=C1\NC(=O)N(CC(=O)Nc2ccccc2C)C1=O	-4.43
Cc1cccc(N2CCN(C(=O)c3ccccc3[N+](=O)[O-])CC2)c1C	3.01
Cc1ccc(-c2nnc3s/c(=C\c4ccc(C)o4)c(=O)n23)cc1	-1.33
Cc1nn(-c2ccccc2)c(-n2cccc2)c1C(=O)N(C)Cc1ccccc1	0.137
CCCCCCOC(=O)NCC(O)c1ccccc1 (stereo not shown)	-1.25
COc1cc(NC(=O)c2ccccc2)c(Cl)cc1NC(=O)c1ccc(N(C)C)cc1	-3.98
COc1ccccc1N1CCN(C(=O)c2ccccc2C(=O)O)CC1	-3.04
COc1ccc(OC)c(-c2csc(-c3ccccn3)n2)c1	1
CC1=NOC(=O)/C1=C/c1ccc(-c2ccc(Cl)c(Cl)c2)o1	-2.87
COCCCNC(=O)c1ccc2c(c1)ncn2-c1ccc(F)c(F)c1	-3.93
COc1ccc(S(=O)(=O)NCC(=O)Nc2ccc(Cl)cc2C)cc1OC	-16
N#CCNC(=O)[C@H](CS(=O)(=O)Cc1ccccc1OC(F)F)NC(=O)c1cccnc1O	-10.7
O=c1cccc2n1C[C@H]1C[C@@H]2CN(Cc2ccc(F)cc2F)C1	-5.48
Cc1cc(Br)ccc1NC(=O)c1cccc2ccccc12	0.705
